The record followed here is paper PMC4791575 (ACS Infectious Diseases, 2016).

Holding throughout (test): microbe, parasite or virus in culture
One experiment has as its system P. falciparum W2. The experiment is classed as cell-based, Plasmodium falciparum.
Another experiment concerns T. brucei cells. The experiment is classed as cell-based, Trypanosoma brucei. To be noted: for EC50: Trypanosoma brucei, read-out: T. brucei pEC50 (within 46%) (converted).
Experiment [1] relates to L. major intracellular amastigotes. The experiment is classed as cell-based, Leishmania major. The conditions noted are these: for EC50: Leishmania major, read-out: Leishmania Amast pEC50 (converted).
A further experiment has as its system P. falciparum D6. Format: cell-based, Plasmodium falciparum. The conditions noted are these: for EC50: Plasmodium falciparum, D6, read-out: P. falciparum D6 pEC50 (converted).
Experiment [2] has as its system T. cruzi intracellular amastigotes (Tulahuen strain). Format: cell-based. The conditions noted are these: Trypanosoma cruzi, read-out: T. cruzi pEC50 (μM) (within 21%) (converted).
In another experiment the test system is P. falciparum C235. Format: cell-based, Plasmodium falciparum.
For the next experiment, the system named is L. major promastigotes. The experiment is classed as cell-based, Leishmania major. To be noted: for EC50: Leishmania major, read-out: Leishmania Promast pEC50 (converted).

As to `CCc1cnn2c(NCc3ccc[n+]([O-])c3)cc(N3CCCC[C@H]3CCO)nc12` [NEU-975, dinaciclib], the EC50 in the experiment with P. falciparum W2 (Plasmodium falciparum, W2, read-out: P. falciparum W2 pEC50 (converted)) was 0.794 µM; with T. brucei cells, 0.0398 µM; in experiment [1], 2.51 µM; with P. falciparum D6, 1.26 µM; in experiment [2] it was 0.1 µM; in the experiment with P. falciparum C235 (Plasmodium falciparum, read-out: P. falciparum C235 pEC50 (converted)), 0.316 µM. In addition, the EC50 with L. major promastigotes is 1.58 µM.
Regarding `CC[C@H](CO)Nc1nc(NCc2ccccc2)c2ncn(C(C)C)c2n1` [NEU-977, roscovitine], the EC50 is > 3.16 µM in the experiment on T. brucei cells; > 15.8 µM in experiment [1]; 0.794 µM in the experiment with P. falciparum D6; > 50.1 µM in experiment [2]; 6.31 µM in the experiment on L. major promastigotes.
As for `O=C1NC(=O)C(c2ccccc2[N+](=O)[O-])=C1Nc1ccc(O)c(Cl)c1` [NEU-986, SB 41528622], the “P. falciparum W2 pEC50” value with P. falciparum W2 amounted to 4.6. In addition, the “T. brucei pEC50 (within 46%)” value in the experiment with T. brucei cells was 6.1. Also, the “Leishmania Amast pEC50” value in experiment [1] is reported as <4.8. Besides, in the experiment on P. falciparum D6, the “P. falciparum D6 pEC50” value is reported as 4.8. Besides, the “P. falciparum C235 pEC50” value in the experiment with P. falciparum C235 was determined as 4.6. Besides, in the experiment with L. major promastigotes, the “Leishmania Promast pEC50” value is <4.6.
